{
  "source": "patent US9750727B2",
  "about": "(priority 2010, dated 2017)",
  "tested_on": "peritoneal macrophages (pMP)",
  "design": "species or system mice",
  "conditions": "mouse, in vivo",
  "data": [
    {"smiles": "NNC(=O)c1ccncc1", "note": "[Isoniazid, isonicotinic acid hydrazide]", "values": [
      {"measurement": "decrease of pMP activity", "result": 1.2, "unit": "fold"}
    ]},
    {"smiles": "CC[C@@H](CO)NCCN[C@@H](CC)CO", "note": "[Ethambutol, ethambutol]", "values": [
      {"measurement": "decrease of pMP activity", "result": 1.3, "unit": "fold"}
    ]}
  ]
}
